Drawing on paper PMC12136788, this text covers binding signal for 22 molecules.

The list shows a part of the results.

The labels stand for the following.
B1: chr7:90019490:90019491:+_ENSMUSG00000057706_ENSMUST00000082237|mus_hu|FALSE|FALSE (ssRNA)
RNA: GGGAGUUCUACAGUCCGACGAUCUCCGUCACAAUUGUGUGAUUAUUAAAAUAAUACAGUGUUCUUUGCCAUAAGGCCAUACUAAAAUAAAAAGAUUUAACCCAGCUACAAAAAAGUUCACUGAACUUAAAUUAAAAUACUUGUCAACAGAGGAUUGAGCAUCA
B2: 87969002_87969122_5758_CDS_ENSG00000188994_ENST00000369577|human|control|control (ssRNA)
RNA: GGGAGUUCUACAGUCCGACGAUCUUUACCAUAGUGCUUAAAUAGUGCAUCCUUUGUCAUAGCACUGUAGUUACAGCCUUGGUUUUGACACACAAAGGGUUUAUUAACUUUGUCAUUAAAUUGAAUGUUUAUCAUUUCAGAAACCAACAGAGGAUUGAGCAUCA
B3: 6602608_6602728_96_3pUTR_ENSG00000111639_ENST00000229238|human|control|control (ssRNA)
RNA: GGGAGUUCUACAGUCCGACGAUCUUUCAAGAAAAUUCACCCUUUCCGCUUUCUUUGGCGUCCUUCAACCGUGAAGGAAAUGAAGGUUGAGAACCUGGAACCCGCUUCCAAUGACCAAGCCCUUUCUCUGUGCCUCACAACAGUCAACAGAGGAUUGAGCAUCA
B4: 8059404_8059524_152_3pUTR_ENSMUSG00000022142_ENSMUST00000163765|mouse|control|control (ssRNA)
RNA: GGGAGUUCUACAGUCCGACGAUCCCGCGUUUUCCAAAGCUUCCUGCAGGGAGGCGGCGGCCGACGUAGAGGCCACCAUCAUAGAGCCCAGCACCGAUGGCAUGUCGGCAAUCGUGGCCACCGCCUUAUAGAAACACUCCAAACCAACAGAGGAUUGAGCAUCA
B5: chr12:70442348:70442349:-_ENSMUSG00000020982_ENSMUST00000021368|mus_hu|motif|central (ssRNA)
RNA: GGGAGUUCUACAGUCCGACGAUCAACAGGGUCUCCUUGAGCCUGGGCUUCUUUCACAAUUAACCCAAUUUCUGUCCAAUCGGUCUGGUUAGCUAAAGCACUUCGAACUACCUGAAUGGCUCUGUCAACUAUUUGUAGGUUCAUCAACAGAGGAUUGAGCAUCA
B6: 59170736_59171261_1518_CDS_ENSMUSG00000025235_ENSMUST00000026265|mouse|control|control (ssRNA)
RNA: GGGAGUUCUACAGUCCGACGAUCCUCUGGCUCCAGUGGCAGUGAUGGUGGCUUUGGGAGCUGGGCUCCUACAGCACCUGAAAGGAUCUUUCUGUAUGCAGCUGCUGAAGACAUCGCCUGUCCUAGAGCUUGAAUGGAACCCAGCAACAGAGGAUUGAGCAUCA
B7: chr2:230668852:230668853:-_ENSG00000153827_ENST00000389045|hu_mus|FALSE|FALSE (ssRNA)
RNA: GGGAGUUCUACAGUCCGACGAUCUAUCCUAAGAAUUGCUCUAAGGCACUUGUGUCUGACCGCAGGGCCUGCUGAGGAGCUGUACACUUCAUAGAGAACACCAAACAAGGUCUUAAUGAAAGACUUAGCCAGUUCCGGAUCUUCCAACAGAGGAUUGAGCAUCA
B8: chr18:2804189:2804190:+_ENSG00000101596_ENST00000320876|hu_hu|motif|central (ssRNA)
RNA: GGGAGUUCUACAGUCCGACGAUCCAAUGCCUUGGAUUUAAAACAUGACUCCUUCUUGAUACAAUGAAUUAUAAAAGCAAACGGGUUCCACAUAUUAAUUAUACGUUCAAGUCUAGUUCCUAAAAAGUCAUUUCUCUUUAACCUCAACAGAGGAUUGAGCAUCA
B9: chr8:89189611:89189612:+_ENSMUSG00000047866_ENSMUST00000034141|mus_mus|FALSE|FALSE (ssRNA)
RNA: GGGAGUUCUACAGUCCGACGAUCGAAAAGAACUUGGGAAAGGUCAAAGGCCACAUUUAGAUAGUGAUCUGUGAAGUUAUGGUUUUGUUCAGGAUCCAACACCUCAAGCAGCGCAGCUGCAGGAUCCCCCUGCAGGCUUUUCCCCAACAGAGGAUUGAGCAUCA
B10: chr1:201932794:201932795:+_ENSG00000134375_ENST00000367287|hu_hu|motif|central (ssRNA)
RNA: GGGAGUUCUACAGUCCGACGAUCUAAGGCACCACUUGUGAUGGAGUUCCAGGGAUCUUCCUUUCCUCUGACUUGAACCAUACGGCAGUCAAUCAUGGAAAACAGCCCUCCCCAAACUGCAAAGCUACCUCCUAACUGUGGAGCCAACAGAGGAUUGAGCAUCA
B11: chr3:41280641:41280642:+_ENSG00000168036_ENST00000349496|hu_hu|FALSE|FALSE (ssRNA)
RNA: GGGAGUUCUACAGUCCGACGAUCCAUGGGGUCCAUACCCAAGGCAUCCUGGCCAUAUCCACCAGAGUGAAAAGAACGAUAGCUAGGAUCAUCCUGGCGAUAUCCAAGGGGUUCUCCCUGGGCACCAAUAUCAAGUCCAAGAUCCAACAGAGGAUUGAGCAUCA
B12: 37400315_37400435_1777_CDS_ENSG00000101442_ENST00000243903|human|control|control (ssRNA)
RNA: GGGAGUUCUACAGUCCGACGAUCUCCACCAGCAGCGGAGCCCUUGCUGGAUGCCUGGGCAUCUGAGGAGCGGGAGGCCUGCUUCGGCAGGCGGAUGGGGACAUAGAUGUUGGAAGCACAGUGCUCCUUGAGGUACUCUCCUCCCAACAGAGGAUUGAGCAUCA
B13: chr17:55917276:55917277:-_ENSG00000181610_ENST00000313608|hu_hu|motif|central (ssRNA)
RNA: GGGAGUUCUACAGUCCGACGAUCGUUUUCUUCCAACGCAGUCUGUGGUCUGACACUCAAGUGUUCGGAUUUCCGGGAAACGUGACGGCCUCCGUGUUGAGUCCUUGCUUCGCCUACUCGUCUUAAAAUGACACCUUCUGCCAACAACAGAGGAUUGAGCAUCA
B14: chr16:94664741:94664742:+_ENSMUSG00000040785_ENSMUST00000117648|mus_hu|mus_mus_mus_hu_False|8_58 (ssRNA)
RNA: GGGAGUUCUACAGUCCGACGAUCUGGUACUGAUCUUGGUAGCUGAUAUUCAGGAGAAAGGCUGGCCAAGGGUGUAUAAAUGCUAGUGUACUGGGGCAAACCUGGUAACACGUUUAUGUAUGCUGGCCGCUGGGUGAUGAUAUCCAACAGAGGAUUGAGCAUCA
B15: chr17:64801638:64801639:+_ENSG00000154229_ENST00000413366|hu_mus|hu_hu_hu_mus_False|38_88 (ssRNA)
RNA: GGGAGUUCUACAGUCCGACGAUCUAUAUAUAUAUAUACAUAUGUACACAUAUGUAGUAAAACCCUAGUUAAACGUGUAAAGUAGCCAUUCAUUUUUGAAAUUUUAUCUACAUUAAAAAAUUAAUAUAUCUGAUAGAGUGCCAGCAACAGAGGAUUGAGCAUCA
B16: chr5:143131892:143131893:+_ENSMUSG00000029578_ENSMUST00000036872|mus_hu|FALSE|FALSE (ssRNA)
RNA: GGGAGUUCUACAGUCCGACGAUCCAGAAUCGUGUUGGAGUAGCUGUAGUUGCAGAUCUCAGUUCCCUUCUUAAAGUGGCAAACCUUUAGCUUCCUUGGUGCUUUAAGGCUGACGAUGGCCACUAGGCUGCUGGAGAACAAUCUCAACAGAGGAUUGAGCAUCA
B17: chr17:57816259:57816260:+_ENSG00000062716_ENST00000262291|hu_mus|FALSE|FALSE (ssRNA)
RNA: GGGAGUUCUACAGUCCGACGAUCCAGAUAAAGCAGAAAGGUGUGCAGUCCUGUUCCAAGACCAACAGAGGACAAAAUCCCCAGGCCUAUCCAGUAUGCAUACAAAAGAAACUGCUUCUCUAUCCGCUGCACAUACUGUUGGUGCAACAGAGGAUUGAGCAUCA
B18: chr20:21346065:21346066:+_ENSG00000088930_ENST00000377191|hu_mus|FALSE|FALSE (ssRNA)
RNA: GGGAGUUCUACAGUCCGACGAUCUCCUGGAAGCAUUGCAGCUUUAAAAACAUAAUCUUCAGCAAACUGUGGAUCUUUAAAAUUAAUACUGACUGCAGUGUUCUGUGUCAGGUCCCGCAACAUGGGCACAGGGGAACAUACUGUCAACAGAGGAUUGAGCAUCA
B19: chr5:174939138:174939139:+_ENSG00000164466_ENST00000321442|hu_hu|FALSE|FALSE (ssRNA)
RNA: GGGAGUUCUACAGUCCGACGAUCGCCAACUUUGAGUUCCCUUUGCCUCAUUAAUGGAAUAUUAAUGCAAUUAGCAGCAGCUACGGCAGCAAAGGGAACAAAACGUCCUAUCAGUGGUGAGACAUGCUUGGUCAAUGCAUUGAGCAACAGAGGAUUGAGCAUCA
B20: 242203985_242206293_344_CDS_ENSG00000115677_ENST00000391976|human|control|control (ssRNA)
RNA: GGGAGUUCUACAGUCCGACGAUCAGGGUCGCUCUCCUCUUCUGAAUUUAGAGUGGCAACUUUGAUUUGUUGCGGAACCAGCCCACUUCGGUGUUCAGCAAAACUCUCUUGGGUCAAAACUGCAACGGAACUCAUGGUUGAUCUCAACAGAGGAUUGAGCAUCA
B21: chr4:54294246:54294247:+_ENSG00000145216_ENST00000306932|hu_mus|FALSE|FALSE (ssRNA)
RNA: GGGAGUUCUACAGUCCGACGAUCUGGAGGAGGAGGAAGGUGAGUAGGAGGAGCCCCUGGAGGGAAAAAUGGAGGUGGUUUGCUGAAAUUGUUGUCUACUUCAGUGGCAGAUCUGUCAGAAAGGACCUGUAUAUUGCUGUUCUCCAACAGAGGAUUGAGCAUCA
B22: 29183081_29183201_1843_3pUTR_ENSG00000159873_ENST00000249064|human|control|control (ssRNA)
RNA: GGGAGUUCUACAGUCCGACGAUCGGGGGAAAAAAAAAAAAACUUGCUAAUACAAGUAUAACUUUUUAAAAAAAUUACCAAAGUUAUCAAUGUUGGGUUUAGCUGAUAAAGCACUUCCUUAAGAUGAACUAAAGGAUGCUUCUCCAACAGAGGAUUGAGCAUCA

For the assay, the target named is T1, UNK ZnF1-3 (human, UniProt Q9C0B0 31-174).
T1 sequence: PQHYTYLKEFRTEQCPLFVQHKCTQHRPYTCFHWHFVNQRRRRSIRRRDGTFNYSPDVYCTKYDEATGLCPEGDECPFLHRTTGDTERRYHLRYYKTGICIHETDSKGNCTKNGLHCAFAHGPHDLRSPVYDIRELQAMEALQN
The experiment in a line: nsRBNS (natural sequence RNA bind-n-seq); RBNS binding buffer (assumed for nsRBNS): 25 mM Tris pH 7.5, 150 mM KCl, 3 mM MgCl2, 0.01% Triton X-100, 500 ug/ml BSA, 20 U/ml SUPERase-In, 4 C; UNK is unkempt and MSI1 is Musashi-1; names of the RNAs are library labels; protein concentration not given here; high values mean tight binding.
Molecule B1 returned a binding signal of 2.43 enrichment R.

The molecule B2 gave a binding signal of 0.646 enrichment R.

With B3, the binding signal was 0.983 enrichment R.

In turn, B4 gave a binding signal of 0.812 enrichment R.

Regarding B5, the binding signal turned out to be 0.744 enrichment R.

In turn, B6 came in with a binding signal of 0.757 enrichment R.

Take B7: the binding signal was determined as 0.787 enrichment R.

On to B8, for which the binding signal worked out at 1.11 enrichment R.

On to B9, for which the binding signal came to 0.867 enrichment R.

Consider B10, for which the binding signal amounted to 1.15 enrichment R.

B11: the binding signal was 0.891 enrichment R.

Take B12: the binding signal came out at 0.843 enrichment R.

B13 showed a binding signal of 0.504 enrichment R.

The molecule B14 came in with a binding signal of 1.04 enrichment R.

B15: the binding signal was 2.56 enrichment R.

Take B16: the binding signal was 0.743 enrichment R.

B17 showed a binding signal of 0.939 enrichment R.

B18 showed a binding signal of 1.4 enrichment R.

Molecule B19 returned a binding signal of 0.695 enrichment R.

With B20, the binding signal turned out to be 0.812 enrichment R.

In turn, B21 gave a binding signal of 1.94 enrichment R.

B22 registered a binding signal of 1.02 enrichment R.
